# The supplement of paper PMC8728848
# This is one part of the list.
# B1: MCI4 (Toxoplasma gondii), Q9XZH7 (protein)
# chain: MRASLPVHLVVCTQLSAVWFGVAKAHGGHRLEPHVPGFLQGFTDITPAGDDVSANVTSSEPAKLDLSCVHSDNKGSRAPTIGEPVPDVSLEQCAAQCKAVDGCTHFTYNDDSKMCHVKEGKPDLYDLTGGKTASRSCDRSCFEQHVSYEGAPDVMTAMVTSQSADCQAACAADPSCEIFTYNEHDQKCTFKGRGFSAFKERGVLGVTSGPKQFCDEGGKLTQEEMEDQISGCIQLSDVGSMTADLEEPMEADSVGACMERCRCDGRCTHFTFNDNTRMCYLKGDKMQLYSSPGDRTGPKSCDSSCFSNGVSYVDDPATDVETVFEISHPIYCQVICAANPLCTVFQWYASEAKCVVKRKGFYKHRKTGVTGVTVGPREFCDFGGSIRDREEADAVGSDDGLNAEATMANSPDFHDEVECVHTGNIGSKAQTIGEVKRASSLSECRARCQAEKECSHYTYNVKSGLCYPKRGKPQFYKYLGDMTGSRTCDTSCLRRGVDYSQGPEVGKPWYSTLPTDCQVACDAEDACLVFTWDSATSRCYLIGSGFSAHRRNDVDGVVSGPYTFCDNGENLQVLEAKDTE
# Assays:
# Assay in all cases: glycan array binding signal (z-score within array); higher = stronger binding
# Conditions in all cases: glycan notation: IUPAC condensed, linker removed
# [1] = biological target: Neu5Ac(a2-3)Gal(b1-3)[Fuc(a1-4)]GlcNAc(b1-3)Gal(b1-4)[Fuc(a1-3)]GlcNAc
# Method in brief: (§1)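 Arrays were curated from the Consortium for Functional Glycomics database, 3228 in total, and kept only where the protein sequence was available. Binding is expressed as a within-array Z-score. This score was averaged across arrays of the same protein sequence at different concentrations or buffers and across linkers, and negative values can be read as non-binding.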
# [2] = biological target: Neu5Ac(a2-3)Gal(b1-3)[Neu5Ac(a2-3)Gal(b1-4)]GlcNAc
# Method in brief: as §1
# [3] = biological target: Neu5Ac(a2-3)Gal(b1-3)[Neu5Ac(a2-6)]GalNAc
# Method in brief: as §1
# [4] = biological target: Neu5Ac(a2-3)Gal(b1-4)Glc
# Method in brief: as §1
# [5] = biological target: Neu5Ac(a2-3)Gal(b1-4)GlcNAc
# Method in brief: as §1
# [6] = biological target: Neu5Ac(a2-3)Gal(b1-4)GlcNAc(b1-2)Man(a1-3)[GlcNAc(b1-2)Man(b1-4)GlcNAc(b1-2)Man(a1-6)]Man(b1-4)GlcNAc(b1-4)GlcNAc
# Method in brief: as §1
# [7] = biological target: Neu5Ac(a2-3)Gal(b1-4)GlcNAc(b1-2)Man(a1-3)[Neu5Ac(a2-6)Gal(b1-4)GlcNAc(b1-2)Man(a1-6)]Man(b1-4)GlcNAc(b1-4)GlcNAc
# Method in brief: as §1
# [8] = biological target: Neu5Ac(a2-3)Gal(b1-4)GlcNAc(b1-3)Gal(b1-3)GlcNAc
# Method in brief: as §1
# [9] = biological target: Neu5Ac(a2-3)Gal(b1-4)GlcNAc(b1-3)Gal(b1-4)GlcNAc
# Method in brief: as §1
# [10] = biological target: Neu5Ac(a2-3)Gal(b1-4)GlcNAc(b1-3)Gal(b1-4)GlcNAc(b1-3)Gal(b1-4)GlcNAc
# Method in brief: as §1
# [11] = biological target: Neu5Ac(a2-3)Gal(b1-4)GlcNAc(b1-3)Gal(b1-4)[Fuc(a1-3)]GlcNAc
# Method in brief: as §1
# [12] = biological target: Neu5Ac(a2-3)Gal(b1-4)GlcNAc(b1-6)[Gal(b1-3)]GalNAc
# Method in brief: as §1
# [13] = biological target: Neu5Ac(a2-3)Gal(b1-4)GlcNAc(b1-6)[Neu5Ac(a2-3)Gal(b1-3)]GalNAc
# Method in brief: as §1
# [14] = biological target: Neu5Ac(a2-3)Gal(b1-4)GlcNAc6S
# Method in brief: as §1
# [15] = biological target: Neu5Ac(a2-3)Gal(b1-4)[Fuc(a1-3)]GlcNAc
# Method in brief: as §1
# [16] = biological target: Neu5Ac(a2-3)Gal(b1-4)[Fuc(a1-3)]GlcNAc(b1-3)Gal
# Method in brief: as §1
# [17] = biological target: Neu5Ac(a2-3)Gal(b1-4)[Fuc(a1-3)]GlcNAc(b1-3)Gal(b1-4)GlcNAc
# Method in brief: as §1
# [18] = biological target: Neu5Ac(a2-3)Gal(b1-4)[Fuc(a1-3)]GlcNAc(b1-3)Gal(b1-4)[Fuc(a1-3)]GlcNAc(b1-3)Gal(b1-4)[Fuc(a1-3)]GlcNAc
# Method in brief: as §1
# [19] = biological target: Neu5Ac(a2-3)Gal(b1-4)[Fuc(a1-3)]GlcNAc(b1-6)[Gal(b1-3)]GalNAc
# Method in brief: as §1
# [20] = biological target: Neu5Ac(a2-3)Gal(b1-4)[Fuc(a1-3)]GlcNAc6S
# Method in brief: as §1
# [21] = biological target: Neu5Ac(a2-3)Gal6S(b1-4)GlcNAc
# Method in brief: as §1
# [22] = biological target: Neu5Ac(a2-3)Gal6S(b1-4)[Fuc(a1-3)]GlcNAc
# Method in brief: as §1
# [23] = biological target: Neu5Ac(a2-3)GalNAc
# Method in brief: as §1
# [24] = biological target: Neu5Ac(a2-3)GalNAc(b1-4)GlcNAc
# Method in brief: as §1
# [25] = biological target: Neu5Ac(a2-3)[GalNAc(b1-4)]Gal(b1-4)Glc
# Method in brief: as §1
# [26] = biological target: Neu5Ac(a2-3)[GalNAc(b1-4)]Gal(b1-4)GlcNAc
# Method in brief: as §1
# [27] = biological target: Neu5Ac(a2-3)[Neu5Ac(a2-6)]GalNAc
# Method in brief: as §1
# [28] = biological target: Neu5Ac(a2-6)Gal
# Method in brief: as §1
# [29] = biological target: Neu5Ac(a2-6)Gal(b1-4)Glc
# Method in brief: as §1
# [30] = biological target: Neu5Ac(a2-6)Gal(b1-4)GlcNAc
# Method in brief: as §1
binder,measurement,setting,value
B1,glycan array binding signal (z-score),[1],-0.206
same,glycan array binding signal (z-score),[2],-0.213
same,glycan array binding signal (z-score),[3],-0.216
same,glycan array binding signal (z-score),[4],-0.205
same,glycan array binding signal (z-score),[5],-0.205
same,glycan array binding signal (z-score),[6],-0.168
same,glycan array binding signal (z-score),[7],-0.198
same,glycan array binding signal (z-score),[8],-0.204
same,glycan array binding signal (z-score),[9],-0.195
same,glycan array binding signal (z-score),[10],-0.224
same,glycan array binding signal (z-score),[11],-0.217
same,glycan array binding signal (z-score),[12],-0.231
same,glycan array binding signal (z-score),[13],-0.208
same,glycan array binding signal (z-score),[14],-0.19
same,glycan array binding signal (z-score),[15],-0.212
same,glycan array binding signal (z-score),[16],-0.218
same,glycan array binding signal (z-score),[17],-0.196
same,glycan array binding signal (z-score),[18],-0.19
same,glycan array binding signal (z-score),[19],-0.166
same,glycan array binding signal (z-score),[20],-0.205
same,glycan array binding signal (z-score),[21],-0.214
same,glycan array binding signal (z-score),[22],-0.21
same,glycan array binding signal (z-score),[23],-0.222
same,glycan array binding signal (z-score),[24],-0.222
same,glycan array binding signal (z-score),[25],-0.2
same,glycan array binding signal (z-score),[26],-0.214
same,glycan array binding signal (z-score),[27],-0.222
same,glycan array binding signal (z-score),[28],-0.219
same,glycan array binding signal (z-score),[29],-0.217
same,glycan array binding signal (z-score),[30],-0.209
